# According to the supplement of paper PMC8728848:
# The list shows a part of the results.
# B1: GS7807H-bfa-490-18-490 (Bacteroides fragilis) (protein)
# chain: GNLEEMNIDPDNATQTHPKLLLTQICMNAFKRGTDGMYATKKVIQADGESADQYYKWTRGSFGYYDNLRNVQKMGEEAERVNAPVYTALTKFFRAYYFYELTLRFGDIPYSQALKGEKEEIYTPEYDAQEDVFAGILQELREADEILANDASVIDGDIIYNGNSTQWRKLINSFRLKVLMTLSNHTTVGNINIASEFKNIATNSPLMNSLADNGQLVYLDQQGNRYPQFNAQWSGYYMDDTFIQRMRERRDPRLFIFSAQTNKGKTEGKPIDDFSSYEGGDPAAPYSDAIIKVSEGTISPINDRFRTDPIVEPTMLMGYAELQQILAEAVVRGWISGNAQTYYEKGIRASFSFYETHAKDYAGYLNENAVAQYLKEPLVDFTQASGTEEQIERIIMQKYLVTFYQGNWDSFYEQLRTGYPDFRRPAGTEIPKRWMYPQGEYDNNGTNVETAITRQFGAGNDKINQATWWQKKS
# Legend:
# Assay in all cases: glycan array binding signal (z-score within array); higher = stronger binding
# Conditions in all cases: glycan notation: IUPAC condensed, linker removed
# [1] = molecular target: Gal(b1-3)GalNAc(b1-3)Gal(a1-4)Gal(b1-4)Glc
# Outline: (§1)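 The binding signal is a Z-score computed within each array and averaged over linkers. Arrays of the same protein sequence at different concentrations or buffers were also averaged together. Data originate from 3228 arrays in the Consortium for Functional Glycomics database, kept only where the protein sequence was available.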
# [2] = molecular target: Gal(b1-3)GalNAc(b1-4)Gal(b1-4)Glc
# Outline: as §1
# [3] = molecular target: Gal(b1-3)GalNAc(b1-4)[Neu5Ac(a2-3)]Gal(b1-4)Glc
# Outline: as §1
# Gal(b1-3)GlcNAc = molecular target: Gal(b1-3)GlcNAc
# Outline: as §1
# [4] = molecular target: Gal(b1-3)GlcNAc(a1-3)Gal(b1-4)GlcNAc
# Outline: as §1
# [5] = molecular target: Gal(b1-3)GlcNAc(a1-6)Gal(b1-4)GlcNAc
# Outline: as §1
# Gal(b1-3)GlcNAc(b1-2)Man = molecular target: Gal(b1-3)GlcNAc(b1-2)Man
# Outline: as §1
# [6] = molecular target: Gal(b1-3)GlcNAc(b1-2)Man(a1-3)[Gal(b1-3)GlcNAc(b1-2)Man(a1-6)]Man(b1-4)GlcNAc(b1-4)GlcNAc
# Outline: as §1
# [7] = molecular target: Gal(b1-3)GlcNAc(b1-2)Man(a1-3)[Gal(b1-3)GlcNAc(b1-2)Man(a1-6)]Man(b1-4)GlcNAc(b1-4)[Fuc(a1-6)]GlcNAc
# Outline: as §1
# [8] = molecular target: Gal(b1-3)GlcNAc(b1-2)Man(a1-3)[GlcNAc(b1-4)][Gal(b1-3)GlcNAc(b1-2)Man(a1-6)]Man(b1-4)GlcNAc(b1-4)GlcNAc
# Outline: as §1
# [9] = molecular target: Gal(b1-3)GlcNAc(b1-2)[Gal(b1-3)GlcNAc(b1-6)]Man(a1-6)[Gal(b1-3)GlcNAc(b1-2)Man(a1-3)]Man(b1-4)GlcNAc(b1-4)GlcNAc
# Outline: as §1
# [10] = molecular target: Gal(b1-3)GlcNAc(b1-3)Gal(b1-3)GlcNAc
# Outline: as §1
# [11] = molecular target: Gal(b1-3)GlcNAc(b1-3)Gal(b1-4)Glc
# Outline: as §1
# [12] = molecular target: Gal(b1-3)GlcNAc(b1-3)Gal(b1-4)GlcNAc
# Outline: as §1
# [13] = molecular target: Gal(b1-3)GlcNAc(b1-3)Gal(b1-4)GlcNAc(b1-2)Man(a1-3)[Gal(b1-3)GlcNAc(b1-3)Gal(b1-4)GlcNAc(b1-2)Man(a1-6)]Man(b1-4)GlcNAc(b1-4)GlcNAc
# Outline: as §1
# [14] = molecular target: Gal(b1-3)GlcNAc(b1-3)Gal(b1-4)GlcNAc(b1-2)[Gal(b1-3)GlcNAc(b1-3)Gal(b1-4)GlcNAc(b1-6)]Man(a1-6)[Gal(b1-3)GlcNAc(b1-3)Gal(b1-4)GlcNAc(b1-2)Man(a1-3)]Man(b1-4)GlcNAc(b1-4)[Fuc(a1-6)]GlcNAc
# Outline: as §1
# [15] = molecular target: Gal(b1-3)GlcNAc(b1-3)Gal(b1-4)GlcNAc(b1-3)Gal(b1-4)GlcNAc(b1-2)[Gal(b1-3)GlcNAc(b1-3)Gal(b1-4)GlcNAc(b1-3)Gal(b1-4)GlcNAc(b1-6)]Man(a1-6)[Gal(b1-3)GlcNAc(b1-3)Gal(b1-4)GlcNAc(b1-3)Gal(b1-4)GlcNAc(b1-2)Man(a1-3)]Man(b1-4)GlcNAc(b1-4)[Fuc(a1-6)]GlcNAc
# Outline: as §1
# [16] = molecular target: Gal(b1-3)GlcNAc(b1-3)Gal(b1-4)GlcNAc(b1-6)[Gal(b1-3)GlcNAc(b1-3)]Gal(b1-4)Glc
# Outline: as §1
# [17] = molecular target: Gal(b1-3)GlcNAc(b1-3)Gal(b1-4)[Fuc(a1-3)]GlcNAc
# Outline: as §1
# [18] = molecular target: Gal(b1-3)GlcNAc(b1-3)Gal(b1-4)[Fuc(a1-3)]GlcNAc(b1-6)[Gal(b1-3)GlcNAc(b1-3)]Gal(b1-4)Glc
# Outline: as §1
# [19] = molecular target: Gal(b1-3)GlcNAc(b1-3)GalNAc
# Outline: as §1
# [20] = molecular target: Gal(b1-3)GlcNAc(b1-6)Gal(b1-4)GlcNAc
# Outline: as §1
# [21] = molecular target: Gal(b1-3)GlcNAc(b1-6)GalNAc
# Outline: as §1
# [22] = molecular target: Gal(b1-3)GlcNAc(b1-6)[Gal(b1-3)]GalNAc
# Outline: as §1
# Gal(b1-3)GlcNAc6S = molecular target: Gal(b1-3)GlcNAc6S
# Outline: as §1
# [23] = molecular target: Gal(b1-3)[Fuc(a1-4)]GlcNAc
# Outline: as §1
# [24] = molecular target: Gal(b1-3)[Fuc(a1-4)]GlcNAc(b1-2)Man
# Outline: as §1
# [25] = molecular target: Gal(b1-3)[Fuc(a1-4)]GlcNAc(b1-2)Man(a1-3)[Gal(b1-3)[Fuc(a1-4)]GlcNAc(b1-2)Man(a1-6)]Man(b1-4)GlcNAc(b1-4)[Fuc(a1-6)]GlcNAc
# Outline: as §1
# [26] = molecular target: Gal(b1-3)[Fuc(a1-4)]GlcNAc(b1-3)Gal(b1-3)[Fuc(a1-4)]GlcNAc
# Outline: as §1
# [27] = molecular target: Gal(b1-3)[Fuc(a1-4)]GlcNAc(b1-3)Gal(b1-4)[Fuc(a1-3)]GlcNAc
# Outline: as §1
# [28] = molecular target: Gal(b1-3)[Fuc(a1-4)]GlcNAc(b1-6)GalNAc
# Outline: as §1
# [29] = molecular target: Gal(b1-3)[GlcNAc(b1-6)]GalNAc
# Outline: as §1
# [30] = molecular target: Gal(b1-3)[Neu5Ac(a2-6)]GalNAc
# Outline: as §1
# [31] = molecular target: Gal(b1-3)[Neu5Ac(a2-6)]GlcNAc(b1-4)Gal(b1-4)Glc
# Outline: as §1
# [32] = molecular target: Gal(b1-3)[Neu5Ac(b2-6)]GalNAc
# Outline: as §1
# Gal(b1-4)Gal = molecular target: Gal(b1-4)Gal
# Outline: as §1
# [33] = molecular target: Gal(b1-4)GalNAc(a1-3)[Fuc(a1-2)]Gal(b1-4)GlcNAc
# Outline: as §1
# [34] = molecular target: Gal(b1-4)GalNAc(b1-3)[Fuc(a1-2)]Gal(b1-4)GlcNAc
# Outline: as §1
binder,measurement,setting,value
B1,glycan array binding signal (z-score),[1],-0.061
same,glycan array binding signal (z-score),[2],-0.255
same,glycan array binding signal (z-score),[3],-0.4
same,glycan array binding signal (z-score),Gal(b1-3)GlcNAc,-0.335
same,glycan array binding signal (z-score),[4],-0.684
same,glycan array binding signal (z-score),[5],-0.189
same,glycan array binding signal (z-score),Gal(b1-3)GlcNAc(b1-2)Man,0.866
same,glycan array binding signal (z-score),[6],0.318
same,glycan array binding signal (z-score),[7],-0.342
same,glycan array binding signal (z-score),[8],-0.324
same,glycan array binding signal (z-score),[9],2.29
same,glycan array binding signal (z-score),[10],-0.347
same,glycan array binding signal (z-score),[11],-0.456
same,glycan array binding signal (z-score),[12],-0.48
same,glycan array binding signal (z-score),[13],-0.533
same,glycan array binding signal (z-score),[14],0.796
same,glycan array binding signal (z-score),[15],0.75
same,glycan array binding signal (z-score),[16],-0.003
same,glycan array binding signal (z-score),[17],0.374
same,glycan array binding signal (z-score),[18],0.745
same,glycan array binding signal (z-score),[19],-0.634
same,glycan array binding signal (z-score),[20],9.32
same,glycan array binding signal (z-score),[21],-0.482
same,glycan array binding signal (z-score),[22],0.913
same,glycan array binding signal (z-score),Gal(b1-3)GlcNAc6S,-1.09
same,glycan array binding signal (z-score),[23],-0.259
same,glycan array binding signal (z-score),[24],-0.359
same,glycan array binding signal (z-score),[25],1.45
same,glycan array binding signal (z-score),[26],-0.036
same,glycan array binding signal (z-score),[27],-0.365
same,glycan array binding signal (z-score),[28],-0.017
same,glycan array binding signal (z-score),[29],0.216
same,glycan array binding signal (z-score),[30],-0.328
same,glycan array binding signal (z-score),[31],-0.368
same,glycan array binding signal (z-score),[32],-0.813
same,glycan array binding signal (z-score),Gal(b1-4)Gal,-0.318
same,glycan array binding signal (z-score),[33],-0.448
same,glycan array binding signal (z-score),[34],-0.247
